Test results as given in PubChem BioAssay AID902 (National Center for Advancing Translational Sciences (NCATS), 2007).
In all, about 130,000 compounds went through this assay and about 1,900 (1.5%) were called active. The shares of active, inactive and inconclusive entries below differ from those in the screen. Calls follow the shape of the dose curve; as a rule, active = well fitted cell-killing curve with a large enough effect; inconclusive = small, poorly fitted or top-dose-only effect; inactive = no such curve, though single readings can be large or run the other way. Where the call is inconclusive, the potency comes from a doubtful curve fit.

assay: qHTS Screen for Compounds that Selectively Target Cancer Cells with p53 Mutations: Cytotoxicity of p53ts Cells at the Nonpermissive Temperature; conditions: H1299-p53A138V viability at 39C, ATP luminescence, 24 h; activity change, negative = cell killing: at 46.1 µM (top of the series); also: nearly all actives have a fitted effect of over 55% in size
% is scaled to controls: 0 for no effect and ±100 for the full control effect; potency is read from the fitted curve at half-maximal effect; tags tell the direction and shape of the fitted curve.

| Compound | Potency | activity change, negative = cell killing |
| --- | --- | --- |
| Cc1csc2nc(COC(=O)c3cccc(NC(=O)c4cccc(Cl)c4)c3)cc(=O)n12 | inconclusive: 12.6 µM [cytotoxic, partial curve] | – |
| Cc1nc2ccn(Cc3cccs3)c(=O)c2cc1C(=O)NCc1ccc(Br)cc1 | – | inactive: -17.7% |
| CC(=O)c1ccccc1OCC(O)CN1CCN(C(c2ccccc2)c2ccccc2)CC1 (centres undefined) | inconclusive: 15.8 µM [cytotoxic, single point] | – |
| Cc1oc(-c2ccccc2Cl)nc1CSCC(=O)N1CCCC1 | inconclusive: 2.51 µM [cytotoxic, full curve] | – |
| CC1=C(C(N)=O)C(c2cccc(O)c2)n2ncnc2N1 (centres undefined) | inconclusive: 0.01 µM [cytotoxic, full curve, poor fit] | – |
| O=C(Nc1nnc(-c2cc(Cl)ccc2Cl)o1)c1ccc2c(c1)OCCO2 | – | inactive: -13.5% |
| CCc1ccc(NS(=O)(=O)c2ccc3oc(=O)c4ncn(CC)c4c3c2)cc1 | active: 12.6 µM | – |
| CCCc1cc(=O)n2c(C(=O)Nc3ccc(OCC)cc3)c(C(=O)Nc3ccc(C)cc3)sc2n1 | inconclusive: 31.6 µM [cytotoxic, single point] | – |
| COc1cc(OC)c2c(=O)c(-c3ccc4c(c3)OCO4)coc2c1 | – | inactive: -17.9% |
| Cc1ccc(NC(=O)N2CCc3cc(S(=O)(=O)N4CCC(C)CC4)ccc32)cc1 | inconclusive: 6.31 µM [cytotoxic, full curve, poor fit] | – |
| O=C(NCCc1csc(-c2ccc(C(F)(F)F)cc2)n1)c1ccc(F)c(F)c1 | inconclusive: 25.1 µM [cytotoxic, single point] | – |
| CCN(c1cccc(C)c1)S(=O)(=O)c1ccc(-n2cccn2)cc1 | inconclusive: 1 µM [cytotoxic, full curve, poor fit] | – |
| COc1ccc(CNC(=O)C(=O)Nc2c3c(nn2-c2ccccc2)CSC3)cc1 | – | inactive: 0.868% |
| Cc1ccc(C(=O)N2CCc3cc(CNC(=O)CSc4ccccc4)ccc32)cc1 | inconclusive: 12.6 µM [cytotoxic, partial curve] | – |
| Cc1ccc(-c2cc(C(=O)NCc3cnn(C)c3C)c3ccccc3n2)cc1C | inconclusive: 10 µM [cytotoxic, partial curve] | – |
| COc1ccccc1CNC(=O)C(C)n1ccc2cc(S(=O)(=O)N3CCCC3)ccc21 (centres undefined) | inconclusive: 10 µM [cytotoxic, partial curve] | – |
| O=c1c(CCc2ccccc2)nc2cnc(Oc3ccccc3)nc2n1C[C@H]1CCCO1 | – | inactive: 7.6% |
| O=c1c(O)c(-c2ccc(O)c(O)c2)oc2ccccc12 | inconclusive: 20 µM [cytotoxic, partial curve] | – |
| Cc1ccc(F)cc1NC(=O)CCc1c(C)nn(-c2ccc(N3CCOCC3)nn2)c1C | inconclusive: 15.8 µM [cytotoxic, partial curve] | – |
| CCN(CC)CCNc1ccc(CO)c2sc3ccccc3c(=O)c12 | inconclusive: 12.6 µM [cytotoxic, partial curve] | – |
| COc1ccc(C)cc1NC(=O)CCc1c(C)nn(-c2ccc(N3CCCCC3)nn2)c1C | inconclusive: 3.98 µM [cytotoxic, partial curve] | – |
| CC(=O)N1CCc2c(sc3nc(SCC(C)C)n(-c4ccc(C)c(Cl)c4)c(=O)c23)C1 | – | inconclusive: -85.2% [cytotoxic] |
| COc1ccc(-n2c(SCC(=O)Nc3cccc(C)c3C)nc3c([nH]c4ccccc43)c2=O)cc1 | inconclusive: 12.6 µM [cytotoxic, single point] | – |

| Compound | Potency | activity change, negative = cell killing |
| --- | --- | --- |
| CC(C)(C)c1ccc(Oc2ccc(NC(=O)CCC(=O)OCC(=O)c3ccccc3)cc2)cc1 | – | inactive: -26.4% |
| COC(=O)c1ccc(COc2ccccc2/C=C(\C#N)C(=O)NC(C)C)cc1 | inconclusive: 3.98 µM [cytotoxic, single point] | – |
| CC(C)Oc1cccc(C2CC(=O)Nc3cc4c(cc32)OCO4)c1 (centres undefined) | inconclusive: 12.6 µM [cytotoxic, single point] | – |
| Cc1ccc(Cl)cc1N1CCN(C(=O)CCCn2c(=O)[nH]c3ccc(Br)cc3c2=O)CC1 | – | inactive: -18% |
| Cc1ccccc1Cn1c2ccccc2c2cnn(CC(=O)NCC(C)c3ccccc3)c(=O)c21 (centres undefined) | inconclusive: 12.6 µM [cytotoxic, partial curve] | – |
| CSc1ccc(CCNC(=O)C(C)n2nc(C)c3sc4ccccc4c3c2=O)cc1 (centres undefined) | active: 10 µM | – |
| CCOC(=O)C1CCN(C(=O)c2ccc(NC(=O)c3nsc4ccccc34)cc2)CC1 | inconclusive: 31.6 µM [cytotoxic, partial curve] | – |
| CC1CN(S(=O)(=O)c2cccc(C(=O)OCC(=O)Nc3ccc4c(c3)OCO4)c2)CC(C)O1 (centres undefined) | inconclusive: 25.1 µM [cytotoxic, single point] | – |
| Cc1cccc(NC(=O)c2cc3ccccc3o2)c1 | active: 10 µM | – |
| OC(COc1ccc2ccccc2c1Br)Cn1ccnc1 (centres undefined) | inconclusive: 12.6 µM [cytotoxic, single point] | – |
| CCCCCCCCCCCCC(=O)N1CCCC[C@H]1CNC(=O)[C@@H](N)CCCCN | active: 31.6 µM | – |
| c1ccc(-c2noc(-c3cccnc3)n2)cc1 | – | inactive: -24.3% |
| CC(=O)N1c2ccc(S(=O)(=O)NCC3CCC(C(=O)Nc4ccc(C)c(C)c4)CC3)cc2CC1C (centres undefined) | – | inactive: -11.5% |
| Cc1cc(C)c(NC(=O)CCn2c(=O)c3cccn3c3ccccc32)c(C)c1 | inconclusive: 31.6 µM [cytotoxic, single point] | – |
| Oc1ccc(-c2nc(-c3ccccc3)c(-c3ccc(Br)cc3)[nH]2)cc1 | inconclusive: 31.6 µM [cytotoxic, single point] | – |
| C[N+](C)(C)CCCSc1nc2ccccc2[nH]1 | – | inactive: 6.28% [at 9.22 µM] |
| COCCCN1C(=O)c2[nH]nc(-c3ccccc3O)c2C1c1ccc(OCc2ccccc2)cc1 (centres undefined) | active: 12.6 µM | – |
| CC1=C(C(=O)OC2CCCCCC2)C(c2cccc(F)c2F)CC(=O)N1 (centres undefined) | inconclusive: 12.6 µM [cytotoxic, single point] | – |
| COc1ccc(NC(=O)Nc2nccs2)cc1 | inconclusive: 10 µM [cytotoxic, partial curve] | – |
| CCOc1ccc(-c2nnc(-c3ccco3)o2)cc1 | active: 12.6 µM | – |
| Cc1nc(NC(=O)c2ccc(Br)s2)sc1C(=O)N(C)C | inconclusive: 3.98 µM [cytotoxic, full curve] | – |
| Fc1ccc(Nc2nc(SCc3ccccc3F)nc3ccccc23)cc1 | inconclusive: 12.6 µM [cytotoxic, single point] | – |
| COc1ccc(C2CC(=O)c3c([nH]c(C(=O)OC4CCCCCC4)c3C)C2)cc1 (centres undefined) | inconclusive: 10 µM [cytotoxic, partial curve] | – |

| Compound | Potency | activity change, negative = cell killing |
| --- | --- | --- |
| COc1ccccc1CN1CCC2(CC1)CCN(C(=O)c1cccc(F)c1)CC2 | – | inactive: 7.12% |
| Cc1ccc(-c2nc3n(n2)Cc2ccccc2-3)cc1 | active: 6.31 µM | – |
| CCOc1ccccc1CNCc1c(C(=O)O)n(Cc2ccc(F)cc2)c2cc(C)ccc12 | inconclusive: 2 µM [cytotoxic, full curve, poor fit] | – |
| Cc1conc1NC(c1cccs1)c1ccc2cccnc2c1O (centres undefined) | inconclusive: 20 µM [cytotoxic, single point] | – |
| CCc1cc2c(cc3c(=O)n(CC(=O)NCc4cc(Br)ccc4OC)ncn32)s1 | – | inconclusive: -31.5% [cytotoxic] |
| COc1cccc([C@H]2Oc3ccc(OC)cc3/C(=N\OC[C@@H](O)[C@@H]3O[C@@H]4OC(C)(C)O[C@@H]4[C@H]3O)[C@@H]2O)c1 | – | inactive: 3.54% [at 9.22 µM] |
| CCOc1ccc(NC(=O)C2CCN(S(=O)(=O)c3c(C)noc3/C=C/c3cccs3)CC2)cc1 | inconclusive: 12.6 µM [cytotoxic, single point] | – |
| COc1ccc(C(=O)Nc2ccc3oc(-c4ccc5ccccc5c4)nc3c2)cc1Br | inconclusive: 7.94 µM [cytotoxic, partial curve] | – |
| Cn1cccc1-c1cc2n(n1)CCC(=O)N2CCCC(=O)NCc1ccc(F)cc1 | – | inactive: 1.99% |
| Cc1ccc(C2C(C#N)=C(N)Oc3cc4c(cc32)OCO4)cc1 (centres undefined) | – | inactive: -12.5% |
| CCN(CC)CC(=O)N(CC(=O)Nc1c(C)cc(C)cc1C)C1CCCCC1 | – | inactive: 16.3% |
| O=C(Nc1cc2ccc(O)cc2oc1=O)c1ccccc1 | active: 7.94 µM | – |
| CC(C)CCNC(=O)c1ccc2c(c1)N(Cc1ccccc1F)C(=O)c1ccccc1S2(=O)=O | – | inactive: -10.1% |
| O=c1/c(=C\c2cccnc2)sc2nc3ccccc3n12 | – | inactive: 5.34% |
| COc1ccc(-c2nc(SCC(=O)c3ccc(Br)cc3)n[nH]2)cc1 | inconclusive: 6.31 µM [cytotoxic, partial curve] | – |
| CCC1CN(C(=O)Nc2ccccc2C(F)(F)F)c2ccccc2O1 (centres undefined) | – | inconclusive: -34.6% [cytotoxic] |
| COc1ccc(S(=O)(=O)N(CC(=O)Nc2ccc(OC)cc2OC)c2ccc(Cl)cc2)cc1 | inconclusive: 1.58 µM [cytotoxic, single point] | – |
| COC(=O)c1ccc(C2C=C(c3ccc(Cl)cc3)Nc3nc4ccccc4n32)cc1 (centres undefined) | active: 11.2 µM | – |
| CCOc1ccccc1-c1noc(CCCC(=O)Nc2cccc(C(F)(F)F)c2)n1 | – | inactive: 2.66% |
| Cc1cc2nn(-c3ccccc3)nc2cc1NC(=O)c1cccs1 | inconclusive: 10 µM [cytotoxic, single point] | – |
| COC(=O)C/C=C\[C@@H](C)[C@@H](/C=N\O[C@@H]1O[C@H](COC(C)=O)[C@@H](OC(C)=O)[C@H](OC(C)=O)[C@H]1OC(C)=O)NS(=O)(=O)c1ccc(C)cc1 | – | inactive: 5.61% [at 9.22 µM] |
| COc1ccc(/C=N/O)cc1COc1ccc(NC(C)=O)cc1 | – | inactive: -20.2% |
| COc1ccc(NC(=O)C2CCCN(C(=O)c3cnn(-c4ccccc4)c3-n3cccc3)C2)cc1 (centres undefined) | inconclusive: 0.01 µM [cytotoxic, full curve, poor fit] | – |
